Assay results published in a compilation of properties of binary mixtures (doi:10.1016/j.molliq.2016.05.033).
The densities may have been worked out from excess volumes.

Test: xn = mol fraction of the nth substance listed
Settings: 101 kPa

CCCC[n+]1ccn(C)c1.F[B-](F)(F)F + CNc1ccccc1
x2 = 0
Settings | mass density [kg/m3]
293.15 K | 1203.6
303.15 K | 1195.2
313.15 K | 1188
323.15 K | 1181

CNc1ccccc1 + CCCC[n+]1ccn(C)c1.F[B-](F)(F)F
mass density [kg/m3]
Settings | x1 = 0.0974 | x1 = 0.2093 | x1 = 0.2979 | x1 = 0.3968 | x1 = 0.5009 | x1 = 0.592 | x1 = 0.697 | x1 = 0.7972 | x1 = 0.8999 | x1 = 1
293.15 K | 1190.4 | – | – | 1146.2 | – | 1107.1 | 1083.9 | 1056.2 | 1027.9 | 986.5
303.15 K | 1183.3 | – | – | 1138.7 | 1119.8 | 1099.4 | 1076.1 | 1048.3 | 1020 | –
313.15 K | – | 1162.8 | 1148.4 | 1131.2 | – | 1091.8 | 1068.3 | 1040.4 | 1011.9 | 970.3
323.15 K | 1168.9 | 1155.6 | 1141.1 | 1123.8 | 1104.6 | – | – | 1032.5 | – | 962.1
